Reference: PubChem BioAssay AID485294 (National Center for Advancing Translational Sciences (NCATS), 2010)
Screen size: about 370,000 compounds; about 150 (0.041%) were called active. Inconclusive means that the source gave no clear call. Such entries were picked first, then a sample of the others. Calls come from the whole dose curve; as a rule, active = well fitted inhibition curve with a large enough effect; inconclusive = small, poorly fitted or top-dose-only effect; inactive = flat fitted curve, though single readings scatter. No potency is given beside an inconclusive call; the fits are too rough.

Target: Beta-lactamase (Escherichia coli (strain K12)) (UniProt P00811)
Chain of UniProt P00811 (P00811 whole entry, looked up): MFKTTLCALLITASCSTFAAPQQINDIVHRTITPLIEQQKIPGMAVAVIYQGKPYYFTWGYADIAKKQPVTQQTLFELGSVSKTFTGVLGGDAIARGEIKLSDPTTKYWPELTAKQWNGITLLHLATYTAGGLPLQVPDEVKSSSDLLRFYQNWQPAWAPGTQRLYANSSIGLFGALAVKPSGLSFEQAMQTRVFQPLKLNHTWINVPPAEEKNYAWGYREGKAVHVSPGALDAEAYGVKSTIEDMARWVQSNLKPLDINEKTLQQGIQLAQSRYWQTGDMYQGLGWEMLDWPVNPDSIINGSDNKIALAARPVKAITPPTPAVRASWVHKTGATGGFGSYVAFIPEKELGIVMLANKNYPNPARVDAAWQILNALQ
Assay: qHTS Inhibitors of AmpC Beta-Lactamase (assay with detergent); note: nearly all actives have a fitted effect of over 25% in size;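 for activity change, negative = inhibition: 0% = no-compound wells and -100% = no-enzyme wells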
Conditions: AmpC hydrolysis of nitrocefin, absorbance 480 nm, 0.01% Triton; activity change, negative = inhibition: at 114 µM (top of the series)
Outline: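 AmpC (5.3 nM in the dispensed reagent) in 20 mM phosphate pH 7.0 with 0.01% (detergent screen) or 0.0001% Triton X-100 was preincubated with compounds for 15 min at room temperature. Nitrocefin was then added from an 800 uM solution, and hydrolysis was followed at 480 nm.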
Potency is the fitted concentration of half-maximal effect; tags give direction and shape of the fitted curve.

Compound	Potency	activity change, negative = inhibition
Cn1cccc1Cc1nnc(SCC(=O)Nc2ccccc2)n1-c1ccc(F)cc1	inconclusive [inhibitor, full curve]	
CCCN(CCC)CCNC(=O)c1cc2c(-c3ccccc3F)nn(C)c2s1	inactive	
O=C(Nc1cc(C(F)(F)F)ccc1N1CCOCC1)c1ccc2ccccc2n1	inconclusive [inhibitor, full curve, poor fit]	
O=S(=O)(c1ccc2c(c1)C(O)c1ccccc1CC2)C(F)(F)F (configuration not stated)		inactive: -6.15%
CCC1OC23CCCCC2C(C#N)(C(=N)O3)C1(C#N)C#N (configuration not stated)		inactive: -7.85%
O=C(CN(C1CCCCC1)S(=O)(=O)c1ccccc1)NCc1ccco1		inactive: 0.625%
Cc1cc(O)c(C(c2ccccc2Cl)N2CCN(c3ccccc3)CC2)c(=O)n1Cc1ccco1 (configuration not stated)		inactive: -2.78%
Cc1nc2ccc(NC(=O)COc3ccccc3)cc2s1	inconclusive [inhibitor, full curve]	
O=C(CCOc1ccccc1)Nc1ccnn1C1CCN(Cc2ccccc2)CC1	inconclusive [inhibitor, partial curve, poor fit]	
O=C(CSc1cn(Cc2cccc(F)c2)c2ccccc12)NCc1ccc(F)cc1	inconclusive [inhibitor, partial curve, poor fit]	
CCOC(=O)CN1C(=O)S/C(=C/C=C/c2ccc(N(C)C)cc2)C1=O	inconclusive [inhibitor, partial curve, poor fit]	
Cc1ccc(C(=O)OCC(=O)N(C)c2ccccc2)c(C)c1	inconclusive [inhibitor, single point]	
CC1=C([N+](=O)[O-])C(c2ccccc2Cl)NC(=O)N1C (configuration not stated)		inactive: -21.4%
c1ccc(CSCc2cn3ccccc3n2)cc1	inconclusive [inhibitor, partial curve, poor fit]	
CCCC(=NCC(=O)O)C1=C(O)C(C(=O)OC)C(C)(C)CC1=O (configuration not stated)	inconclusive [inhibitor, partial curve]	
COC(=O)CN1C(=O)C2(C(C#N)=C(N)Oc3ccccc32)C2=C1CC(C)(C)CC2=O (configuration not stated)	inconclusive [inhibitor, full curve]	
COCCNC(=S)N(Cc1cccnc1)Cc1ccc(OC)c(OC)c1	inconclusive [inhibitor, partial curve, poor fit]	
Cc1ccc(C)n1-c1nnc(N2CCC(C(=O)NCCCN3CCN(C)CC3)CC2)s1	inconclusive [inhibitor, full curve, poor fit]	
CCC(C(=O)Nc1cccc(C#N)c1)n1c(=O)c(-c2ccccc2NC(C)=O)nc2ccccc21 (configuration not stated)		inactive: -1.1%
COc1ccc(C(=O)/C(C)=N/O)cc1OC	inconclusive [inhibitor, full curve, poor fit]	
Cc1coc2c(C)c3oc(=O)c(CCC(=O)NCCCn4ccnc4)c(C)c3cc12	inconclusive [inhibitor, full curve, poor fit]	
C=CCNc1nc(C(=O)OCC(=O)NCc2ccccc2OC)cs1	inconclusive [inhibitor, full curve, poor fit]	
O=C(NC1CCCC1)c1ccc(CS(=O)(=O)c2ccc(Br)cc2)o1	inconclusive [inhibitor, full curve, poor fit]	

Compound	Potency	activity change, negative = inhibition
CC1CCCCN1C(=O)c1c([N+](=O)[O-])cnn1C (configuration not stated)	inconclusive [inhibitor, single point]	
O=C(O)C1C2C=CC(C3CC23)C1C(=O)O (configuration not stated)	inconclusive [inhibitor, full curve]	
CN(Cc1ccccc1)CC(O)COc1ccc(CNCc2cc3ccccc3s2)cc1 (configuration not stated)	inconclusive [inhibitor, full curve, poor fit]	
CN(CC(=O)Nc1ccncc1)S(=O)(=O)c1ccc(Cl)cc1	inconclusive [inhibitor, partial curve, poor fit]	
CCCc1cc(=O)[nH]c(SCC(=O)CSc2nc(CCC)cc(=O)[nH]2)n1	inconclusive [inhibitor, partial curve, poor fit]	
COc1ccc(/C=C2\SC(=S)N(CCCC(=O)N3CCN(C)CC3)C2=O)cc1	inconclusive [inhibitor, full curve, poor fit]	
C=C(C)CN(CC)c1nc(N)c2c(N)nc3c(c2c1C#N)CC(=O)N3C12CC3CC(CC(C3)C1)C2	inconclusive [inhibitor, full curve]	
COC(=O)c1cn(-c2ccccc2)nc1-c1ccccc1	inconclusive [inhibitor, full curve, poor fit]	
N/C(=N\OC(=O)CCC1CCCC1)c1ccccn1	inconclusive [inhibitor, full curve, poor fit]	
Cc1ccc(CN2c3ccccc3S(=O)(=O)c3ccccc32)cc1		inactive: 17.7%
COc1ccc(S(=O)(=O)N2CCC(C(=O)Nc3ccccc3N3CCCCC3)CC2)cc1OC	inconclusive [inhibitor, full curve]	
CCOc1ccccc1NC(=O)CC1Nc2ccccc2NC1=O (configuration not stated)		inactive: 9.11%
Cn1cc(SCC(=O)NCC2CCCO2)c2ccccc21 (configuration not stated)	inconclusive [inhibitor, partial curve, poor fit]	
O=C(Nc1ccccc1)c1ccc(-c2ccc(F)cc2)s1		inactive: 1.88%
CC1CC(C)CN(C(=O)CCNS(=O)(=O)c2ccc3c(c2)CCC(=O)N3)C1 (configuration not stated)		inactive: -5.34%
c1ccc(Cn2nnnc2C(c2cccs2)N2CCSCC2)cc1 (configuration not stated)		inactive: -11.4%
CCOc1cc(/C=C2/C(=O)NN(c3cccc(Cl)c3)C2=O)ccc1O	inconclusive [inhibitor, partial curve]	
O=C(NNc1nc(-c2ccc(F)cc2)cs1)c1ccccc1		inactive: -0.803%
CCC(=O)Nc1nc2ccccc2n1Cc1ccccc1Cl		inactive: 0.0378%
CCN(C(=O)c1ccc(C(C)(C)C)cc1)c1nnc(Cn2nnc3ccccc32)s1	inconclusive [inhibitor, full curve, poor fit]	
Cc1ccccc1CC(=O)OCC(=O)Nc1ccc(C)c(S(=O)(=O)N2CCCCC2)c1		inactive: 9.33%
COC(=O)C1(C(O)C(=O)c2ccc(C)cc2C)CCCCC1 (configuration not stated)	inconclusive [inhibitor, partial curve]	
CSc1ccc(C(=S)N2CCCCCC2)cc1	inconclusive [inhibitor, full curve, poor fit]	

Compound	Potency	activity change, negative = inhibition
CC(=O)N1CCc2cc(Br)cc(S(=O)(=O)CCC(=O)N3CCN(c4ccccc4)CC3)c21	inconclusive [inhibitor, full curve, poor fit]	
COc1ccc(C(=O)C2CCCN(C(=O)CCC3=NNC(=O)CC3)C2)c(C)c1 (configuration not stated)		inactive: -2.8%
COC(=O)c1cnn2c1C(=O)N(Cc1cccs1)CC2	inconclusive [inhibitor, full curve]	
COc1ccc(CC(=O)N/N=C/c2cc(Br)cs2)cc1OC	inconclusive [inhibitor, partial curve]	
C=CCn1c(O)c(C(C)=NCCN2CCOCC2)c(=O)[nH]c1=O	inconclusive [inhibitor, full curve, poor fit]	
CCOC(=O)c1cc2c(=O)n3ccccc3nc2n(Cc2ccco2)c1=NC(=O)c1cccc(F)c1		inactive: 4.02%
CC(=O)c1cccc(NC(=O)CN(c2ccccc2)S(C)(=O)=O)c1	inconclusive [inhibitor, full curve, poor fit]	
CC(C)(CO)NCc1c(OCc2ccc(Cl)cc2)ccc2ccccc12	inconclusive [inhibitor, full curve, poor fit]	
Cc1ccc2nc(Cc3ccc(N)cc3)oc2c1	inconclusive [inhibitor, full curve, poor fit]	
Cc1ccc(-c2nnn(CC(=O)N(Cc3ccccc3)C(C(=O)NC(C)(C)C)c3ccncc3)n2)o1 (configuration not stated)	inconclusive [inhibitor, full curve, poor fit]	
COc1ccc(NS(=O)(=O)c2cccc(C(=O)NCC(c3ccccc3OC)N3CCCC3)c2)cc1 (configuration not stated)	inconclusive [inhibitor, single point]	
Cn1cc(C(=O)NCc2ccc(Cl)cc2)c(=O)c2cc(S(=O)(=O)N3CCOCC3)ccc21	inconclusive [inhibitor, partial curve, poor fit]	
COc1cc2cc(C)c(SCC(=O)N3CCOCC3)nc2cc1OC	inconclusive [inhibitor, full curve, poor fit]	
CC(C)C[C@H](NC(=O)[C@H]1N2C(=O)c3ccccc3C2SC1(C)C)C(=O)N[C@@H](Cc1ccccc1)C(=O)O (some centres not stated)	inconclusive [inhibitor, single point]	
CCc1ccccc1NC(=O)c1cc(C2CC2)on1	inconclusive [inhibitor, full curve, poor fit]	
O=C(NCCCN1CCOCC1)C(=O)N/N=C/c1ccccc1Cl		inactive: 3.29%
C=CCNc1nc(C(=O)OCC(=O)c2ccc(OC)cc2OC)cs1	inconclusive [inhibitor, full curve, poor fit]	
Cc1nc2ccccc2c(=O)n1/N=C/c1ccc(N(C)C)cc1		inactive: -14.4%
COC(=O)c1c(C)cc(OC(C)=O)c(C)c1OC(C)=O	inconclusive [inhibitor, full curve]	
COc1ccc(-c2cc(C(=O)N3CCCCC3)c3ccccc3n2)cc1OC		inactive: -5.96%
CC(c1nnc(SCC(=O)N(C)C2CCS(=O)(=O)C2)n1-c1ccccc1)N(C)C (configuration not stated)	inconclusive [inhibitor, single point]	
